The whole screen tested about 48,000 compounds, of which about 120 (0.25%) were called active. Another 4% or so got no clear call; they are omitted. Calls follow the shape of the dose curve; as a rule, active = well fitted activation curve with a large enough effect; inconclusive = small, poorly fitted or top-dose-only effect, or another doubt; inactive = no such curve, though single readings can be large or run the other way. This is one part of the list.

The test in a line: Primary qHTS for Identification of Small Molecule Activators of Huntingtin-Antisense Promoter Activity. Also: nearly all actives have a fitted effect of over 55% in size. The following applies: HEK293 HTT-AS promoter firefly luciferase reporter (activity 0% = vehicle and -100% = no light), 24 h; series mostly up to 57.5 µM; activity change, positive = activation: at the top concentration. A digest of the protocol:
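HEK293 cells carrying firefly luciferase reporters were seeded at 2,500 per well in Opti-MEM and cultured for 24 h. They were then treated with compounds at up to 57.5 uM final for 24 h at 37 degrees C before Dual-Glo luminescence readout.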
On to `N#Cc1ccccc1NC(=O)c1cnc(N2CCOCC2)c2ccccc12`, for which the “activity change, positive = activation” value was inactive: -10.1%.
With `CCC(=O)N1CCc2cc(Br)cc(S(=O)(=O)CCC(=O)NCc3ccc(F)cc3)c21` the figure was inactive: 12.9%.
For `CC(=O)N1CCOc2cc(S(=O)(=O)N(C)Cc3ccccc3)c(Cl)cc21`, the “activity change, positive = activation” value is inactive: -16.5%.
Take `COc1ccccc1-c1nnc(C2CCN(C(=O)c3ccc(Cl)cc3)CC2)o1`: the “activity change, positive = activation” value is inactive: 13.2%.
With `Cc1ccc(Cn2c(CNC(=O)c3cccc(C)c3)nc3ccccc32)cc1` the figure was inactive: -30.1%; with `COc1cccc2c1Oc1ncccc1N(C(=O)CCC(=O)NCc1ccc(C)cc1)C2`, inactive: -7.44%.
Turning to `Cc1ccc(C)c(CN2C(=O)c3ccccc3S(=O)(=O)c3ccc(C(=O)NCc4ccccc4)cc32)c1`, the “activity change, positive = activation” value was inactive: -18.8%.
Regarding `CCCN1CCc2nc(N3CCN(c4ncccn4)CC3)ncc2C1`, the “activity change, positive = activation” value is inactive: 12.1%.
Take `Cc1cccc(OCCCn2c(CCNC(=O)C(C)(C)C)nc3ccccc32)c1`: the “activity change, positive = activation” value was inactive: -17.3%.
The value for `CCn1cc2nc(SCc3cc(C)ccc3C)n(Cc3ccc(OC)cc3)c(=O)c2n1` was inactive: -17.9%; that for `Cc1cccc(OCCSc2nc3ccc(NC(=O)COc4ccccc4)cc3s2)c1` was inactive: -7.71%.
In the case of `CCOCCCNC(=O)C(=O)Nc1c2c(nn1-c1ccc(OC)cc1)CSC2`, the “activity change, positive = activation” value was inactive: -9.84%.
With `Cc1ccc2c(=O)c(C(=O)c3ccc(F)cc3)cn(CC(=O)NCCc3ccccc3)c2n1` the figure was inactive: -7.16%; with `CCOc1ccc(C(=O)Nc2ccc3oc(-c4cccnc4)nc3c2)cc1`, inactive: 12.1%.
The value for `Cc1c(C(=O)NCc2ccccc2Cl)sc2nc[nH]c(=O)c12` was inactive: 1.92%; that for `COc1ccc(CN(Cc2ccco2)c2cnc(S(C)(=O)=O)nc2C(=O)Nc2ccc(C)cc2C)cc1` was inactive: -25.6%; that for `Cc1cc(C)c(OCC(=O)N(Cc2cccc(F)c2)Cc2ccco2)c(C)c1` was inactive: -32.1%.
As to `CCc1nn(CC(=O)N2CCN(c3cccc(C(F)(F)F)c3)CC2)c(=O)c2cccn12`, the “activity change, positive = activation” value was inactive: -16.7%.
In the case of `Cc1cccc(NC(=O)Cn2c(=O)oc3cc(S(=O)(=O)NC4CCCC4)ccc32)c1`, the “activity change, positive = activation” value is inactive: -36.6%.
On to `CCOC(=O)c1ccc(NS(=O)(=O)c2ccc3[nH]c4c(c3c2)CCCCC4)cc1`, for which the “activity change, positive = activation” value was inactive: -28.9%.
With `CCC(=O)c1c(O)cc(O)cc1O` the figure was inactive: -15.8%; with `Cc1oc(-c2ccc(C(=O)Nc3ccccc3F)cc2)nc1COc1ccccc1`, inactive: -1.72%.
With `CCN1C(=O)C(Cc2nc3ccccc3c(=O)n2-c2ccccc2)c2cc(Br)ccc21` (centres undefined) the figure was inactive: -33%; with `COc1ccc(C)cc1NC(=O)CSc1nc(=O)n(Cc2ccccn2)c2c1CCC2`, inactive: -34.3%.
With `CC(=O)N1CCCc2cc(S(=O)(=O)Nc3ccc(C)c(F)c3)ccc21`, the “activity change, positive = activation” value was inactive: -23.8%.
The value for `Cc1oc2c(c(C)cc3oc(=O)c(CC(=O)NCc4ccc(F)cc4)c(C)c32)c1C` was inactive: -4.39%; that for `Cc1cccc(C)c1NC(=O)CN1C(=O)c2cccc3cccc1c23` was inactive: -1.83%.
With `CCOc1ccc(NC(=O)CN2C(=O)C3(SCC(=O)N3c3ccc(F)cc3)c3ccccc32)cc1` (centres undefined) the figure was inactive: -9.78%.
On to `COc1ccc(CNc2oc(-c3ccc(COc4ccc(OC)cc4)o3)nc2C#N)cc1`, for which the “activity change, positive = activation” value was inactive: -30.3%.
With `Cc1cccc(NC(=O)C2CCCN(c3nc4ccccc4s3)C2)c1C` (centres undefined) the figure was inactive: 12.4%; with `Cc1ccc(C)c(N2CCN(CCCNC(=O)Nc3ccc(Cl)cc3)CC2)c1`, inactive: -32.1%; with `CCOC(=O)C1CCCN(C(=O)Cn2nc(CC)n3c(cc4occc43)c2=O)C1` (centres undefined), inactive: -16.6%.
The value for `CCOc1ccccc1NC(=O)CN1C=NS(=O)(=O)c2ccccc21` was inactive: -8.23%; that for `Cc1ccc(CCNC(=O)c2ccc(CS(=O)(=O)Cc3ccccc3F)o2)cc1` was inactive: -18.2%.
Take `COc1cccc2cc(-c3nc(-c4ccc(C)cc4)c(C)s3)c(=O)oc12`: the “activity change, positive = activation” value is inactive: 8.73%.
With `Cc1ccc(C(=O)Nc2ccc3nc(N4CCCCC4)cc(C)c3c2)cc1F` the figure was inactive: -31.5%; with `Cc1ccc(NC(=O)CCNS(=O)(=O)c2ccc3c(c2)CCCC(=O)N3)cc1`, inactive: -15%; with `CC(=O)c1ccc(N2C(=O)N(Cc3cc(C)ccc3C)c3ccccc3S2(=O)=O)cc1`, inactive: -28.1%.
With `Cc1cc(Nc2ccc(F)cc2)nc(-n2nc(C)cc2C)n1` the figure was inactive: -23.1%.
The value for `O=S(=O)(Nc1ccc(Cl)cc1)c1cccc(S(=O)(=O)c2ccc(Cl)c(Cl)c2)c1` was inactive: -23.2%; that for `CCOC(=O)C1(C)C=C(Nc2ccc(C(=O)O)cc2)C(=O)N1c1ccc(C(=O)O)cc1` (centres undefined) was inactive: -9.06%.
With `CCCCN(C)C(=O)Cn1c(SCC(=O)Nc2ccc(C)c(C)c2)nc2ccccc21`, the “activity change, positive = activation” value was inactive: -21.3%.
With `CC1Cc2ccccc2N1NC(=O)c1ccc(Cl)c(S(N)(=O)=O)c1` (centres undefined), the activity change, positive = activation entry was “inactive”.
In the case of `Cc1nc2ccccc2n1CCc1nc2c3ccccc3nc(SCc3ccc(F)cc3)n2n1`, the “activity change, positive = activation” value was inactive: -10.6%.
The value for `Cc1cccc(Nc2c3c(nc4nncn24)CCC3)c1C` was inactive: -36.8%.
The value for `COc1ccc2c(c1)c1c(c(=O)n(-c3ccccc3C)c(=O)n1Cc1c(F)cccc1Cl)n2C` was inactive: -0.996%; that for `COc1ccccc1N1CCN(CC(O)COc2ccc(C)cc2C(C)(C)C)CC1` (centres undefined) was inactive: -27.4%; that for `CCOC(=O)c1c(C)oc2nc(C)nc(NCC3CCN(Cc4cccc(Cl)c4)CC3)c12` was inactive: -12.3%.
With `O=C(CSc1nc2ccsc2c(=O)n1Cc1ccccc1Cl)NCc1ccc(Cl)cc1` the figure was inactive: -10.1%.

For the origin of these results see PubChem BioAssay AID1508624 (National Center for Advancing Translational Sciences (NCATS), 2021).
